Reference: the RNAGym collection of RNA variant scans (doi:10.7554/elife.90254)
The source gives no read counts; variants with many changes may rest on few reads.

B1: LINE1-mini (parent)
chain: GGCAGAGCUCAACACAGCGUGGCAAAGUGGCUGUGGCUAGACUGCC

Variants of: B1
Assay: self-cleavage, relative activity (ratio to wild type); higher = more cleavage; in vitro, sequencing; the parent is a self-cleaving ribozyme

With GGGAGAGAUCAACAAAGCAUGGCCAUGUGGCUGUGGCUAGACUGCC as the variant, how does the self-cleavage read?
Its self-cleavage is 0.54.

Which self-cleavage does the source give for GGGAGAGUUCAACAAAGAGUGGCAAAGUGGCUGUGGCUAGACUGCC here?
The self-cleavage was 0.15.

Which self-cleavage does the source give for GGGAGAGUUAAACACAGCGUGGCAAAGUCGCUGUGGCUAGACUGCC here?
Its self-cleavage is 0.01.

With GGGAGUGCUCAACACAGCGAUACAGAGUGGCUGUGGCUAGAAUGCC as the variant, how does the self-cleavage read?
Its self-cleavage is 0.2.

With GGGAGAGCUCAACCCAGCGUGGCAAAGUGGCUGGGGCUAGACUGCC as the variant, how does the self-cleavage read?
The self-cleavage was 0.03.

Which self-cleavage does the source give for GGGAGUGCUCCACACAGCGUGGCAAAGUGGCUGUGGCUAGACUGUG here?
Its self-cleavage is 0.06.

With GGGAGAGAUCAACACAGCGUAGCAAAGUGGCUGUGACUAGACUACC as the variant, how does the self-cleavage read?
The self-cleavage was 0.12.

Which self-cleavage does the source give for GGGAGAGCUCUACCCAGAGUGGCAAAGUGGCUGUGGAUAGACUGCC here?
Its self-cleavage is 0.02.

Which self-cleavage does the source give for GGGAGAGCUCAACACAGCGUGGCACUGUGGCUGUGGGUAGACUGCC here?
Its self-cleavage is 0.45.

For GGGAGAGCUCUAGACAGCGUGGCAAAGUGGCUGUGGCUAGACUGCC, which self-cleavage is on record?
Its self-cleavage is 0.02.

With GGGAGAGCUCAACACAGCGUGGCGGAGUGGCUGUGGCUAGAAUGCC as the variant, how does the self-cleavage read?
The self-cleavage was 0.08.

For GGGAGAGCUCAACGCAGCGUGGCAAAGUGGCUGUGCCUAGACUGCC, which self-cleavage is on record?
Its self-cleavage is 0.08.

For GGGAGAGCUCAACACAGCGUGGCAAGGUGGCUGUAGCUAUACUGCC, which self-cleavage is on record?
The self-cleavage was 0.02.

For GGGAGAGUUCAACACAGCCUGGCAAAGUGGCUGUGGCUAGACUGCC, which self-cleavage is on record?
Its self-cleavage is 0.05.

Which self-cleavage does the source give for GGGAGAGCUCCACACAGCGUGGCAAAGUGACUGUGGCUAGACUGCC here?
Its self-cleavage is 0.06.

For GGGAGAGAUCAACACACCGUGGCAAAGUGGCAGUGGCUAGACUGCC, which self-cleavage is on record?
Its self-cleavage is 0.02.

Which self-cleavage does the source give for GGGAGAGUUCAACACAGCGUGGCAAAGUGGCUGUGGGUAGACUGCC here?
Its self-cleavage is 0.96.

For GGGAGAGCUCCAAACAGCGUGGCAAGGUGUCUGUGUCUAAACUGCC, which self-cleavage is on record?
The self-cleavage was 0.01.

Which self-cleavage does the source give for GGGAGAGCUAAAUACAGCGUGGCAAAAUGGCUGUGGCAAGUCUGCC here?
Its self-cleavage is 0.01.

For GGGAGAGGUCAUCACAGCGUGGCAAAGUGGCUGUGGCUAGUCUGCC, which self-cleavage is on record?
The self-cleavage was 0.05.

For GGGAGAGCUCAACACGGCGUGGCAAAGUGGCUGUGGCUAGACUGGC, which self-cleavage is on record?
Its self-cleavage is 0.06.

With GGGAGAGCUCAGUACAGCGUGGCAAAGUGGCUGUGGCUAGACUGCC as the variant, how does the self-cleavage read?
The self-cleavage was 0.28.

For GGGAGAGCUCAACACAGCGUGGCAGAGUGGCUGUGGCUACACUGCC, which self-cleavage is on record?
The self-cleavage was 0.05.

Which self-cleavage does the source give for GGGAGAGCUCAACACAGCGUGGCUAAGUUGCUGUGGCUAAACUGCC here?
The self-cleavage was 0.1.

For GGGAGAGCUCAACGCAGCGUGGCAUAGUGGCUGUGGAUAGACUGCC, which self-cleavage is on record?
Its self-cleavage is 0.11.

For GGGAGAGAACAACACAGCGUGGCAAAGUGGCUGUGGCUAGACUGCC, which self-cleavage is on record?
The self-cleavage was 0.4.

With GGGAGAGCUCGACACAGCGUGGCAAAGUGGCUAUGGCUAGACUGCC as the variant, how does the self-cleavage read?
The self-cleavage was 0.06.

Which self-cleavage does the source give for GGGAGAGCUCUACACAGCGUGGCAAACUAUCUGUGGCUACACUGCC here?
Its self-cleavage is 0.01.

For GGGAGAGCUCAUCACAGCGUGGCAAAGUGUCUGUGGCUAGACUGCC, which self-cleavage is on record?
The self-cleavage was 0.04.

Which self-cleavage does the source give for GGGAGUGCACAACACAGAGUGGCAAAGUGGCUGUGGCUAGACUGCC here?
Its self-cleavage is 0.04.

Which self-cleavage does the source give for GGGAGAGCUCUACACAGCGUGGCAAAGUGGCUUGGGCUUGACUGCC here?
The self-cleavage was 0.01.

Which self-cleavage does the source give for GGGAGAGCUCAACACUGCGUGGCAAAGUGGCUGUGGCUCGACUGCC here?
The self-cleavage was 0.

With GGGAGAGCUCAACACAGCGUGGCGAAGUGGGUCUGGCUAGACUGCC as the variant, how does the self-cleavage read?
The self-cleavage was 0.08.

With GGGAGAGCUCGAUACAGCGUGGCAAAGUGGCUGUGGCUAGACUGCC as the variant, how does the self-cleavage read?
Its self-cleavage is 0.03.

With GGGAGGGCUCAACACAGCGUGGCAAAGUGGCUGGGGCUAGACUGCC as the variant, how does the self-cleavage read?
The self-cleavage was 0.03.

Which self-cleavage does the source give for GGGAGGGCUCAACACAGCGUGGCAAAGUGGCUGCGGCUAGACUGCC here?
The self-cleavage was 0.06.

Which self-cleavage does the source give for GGGAGAGCUCAACGCAGCGUGCCAAAGUGGCUGUGGCUAGACUGCC here?
The self-cleavage was 0.18.

With GGGAGUGCUCAACGCAGCGUGGCAAAGUGGCUGUGGGUAGACUGCC as the variant, how does the self-cleavage read?
The self-cleavage was 0.19.

Which self-cleavage does the source give for GGGAGAGCUCAACACAGCGUGGCUAAGUUGCUGUGGCUAGACUGCC here?
Its self-cleavage is 0.34.

With GGGAGAGCUCAACACAGCGUGGCACAGUGGCUGUGGCUAGACCGCC as the variant, how does the self-cleavage read?
Its self-cleavage is 0.06.

Which self-cleavage does the source give for GGGAGAGCUCAACACAGCGUGGCGAAGUGCCUGUGGCUACUAUGCC here?
The self-cleavage was 0.07.

For GGGAGUCCUCAACACAGCGACGCAGAGUGGCUGUGGCUAGACUGCC, which self-cleavage is on record?
Its self-cleavage is 0.04.

With GGGAGAGCUCAACUCCGCGUGGCAGAGUGGCUGUGGCUAGACUGCC as the variant, how does the self-cleavage read?
The self-cleavage was 0.2.

For GGGAGAGAUCAAGACAUCGUGGCAGAGGGGCCGUGGCCAGACUGCC, which self-cleavage is on record?
The self-cleavage was 0.68.

Which self-cleavage does the source give for GGGAGAGCUCACCACAGCGUGGCAAUGCGGCUGUGGCUAGACUGCC here?
The self-cleavage was 0.03.

With GGGAGAGCUCAACACCGGGUGGCAAAGUGGCUGUGGCUAGACUGCC as the variant, how does the self-cleavage read?
Its self-cleavage is 0.1.

With GGGAGAGCUCAACACGGCGUGGCACAGUGGCUGUGGUUAGAUGGCC as the variant, how does the self-cleavage read?
Its self-cleavage is 0.01.

For GGGAGAGUUCAACACAGCGUGGUAAUGUGGCUGUGGCUGGACUGCC, which self-cleavage is on record?
The self-cleavage was 0.02.

With GGGAGAGCUCAACUCAGCGUGGCAAAGUGCCUGUGGCUAGACUGCC as the variant, how does the self-cleavage read?
Its self-cleavage is 0.05.

For GGGAGAGCUCAACACUGCGAUGCAAAAUGGCGGUGGCUAGACUCCA, which self-cleavage is on record?
The self-cleavage was 0.02.

Which self-cleavage does the source give for GGGAGAGCUCUACACAGCGUGGCAAAGGGGCAGAGGCUAGGCUGCC here?
The self-cleavage was 0.01.

For GGGAGAGCUCCACACAGCUUGGCAAUGUGGCUGUGGCUAGACUGCU, which self-cleavage is on record?
The self-cleavage was 0.02.

With GGGAGAGCUCAACCCAGCGUGGCAAAGUGGCUGUGGCAAGACUGCC as the variant, how does the self-cleavage read?
Its self-cleavage is 0.04.

With GGGAGAGCUAACCACAGCGUGGCAAAUUGGCUGUGGCUAGACUGCC as the variant, how does the self-cleavage read?
Its self-cleavage is 0.05.

For GGGAGAGCUCAACUCAGCGUGGCAAAGUGGCAGUGGCUAGACUGCC, which self-cleavage is on record?
The self-cleavage was 0.12.

With GGGAGAGGUCAACACAGCGUGGCAAACUGGCUGUAGGUAGACUGCC as the variant, how does the self-cleavage read?
Its self-cleavage is 0.2.
